In all, about 310,000 compounds went through this assay and about 2,200 (0.71%) showed an effect of 50% or more. The effect is printed as a negative number. This is one part of the list.
Each molecule was assayed against human ether-à-go-go-related gene (hERG) potassium channel (human, UniProt Q12809) (assay: primary screen, population patch clamp on CHO cells stably expressing hERG).
Sequence of human ether-à-go-go-related gene (hERG) potassium channel (Q12809 whole entry, looked up): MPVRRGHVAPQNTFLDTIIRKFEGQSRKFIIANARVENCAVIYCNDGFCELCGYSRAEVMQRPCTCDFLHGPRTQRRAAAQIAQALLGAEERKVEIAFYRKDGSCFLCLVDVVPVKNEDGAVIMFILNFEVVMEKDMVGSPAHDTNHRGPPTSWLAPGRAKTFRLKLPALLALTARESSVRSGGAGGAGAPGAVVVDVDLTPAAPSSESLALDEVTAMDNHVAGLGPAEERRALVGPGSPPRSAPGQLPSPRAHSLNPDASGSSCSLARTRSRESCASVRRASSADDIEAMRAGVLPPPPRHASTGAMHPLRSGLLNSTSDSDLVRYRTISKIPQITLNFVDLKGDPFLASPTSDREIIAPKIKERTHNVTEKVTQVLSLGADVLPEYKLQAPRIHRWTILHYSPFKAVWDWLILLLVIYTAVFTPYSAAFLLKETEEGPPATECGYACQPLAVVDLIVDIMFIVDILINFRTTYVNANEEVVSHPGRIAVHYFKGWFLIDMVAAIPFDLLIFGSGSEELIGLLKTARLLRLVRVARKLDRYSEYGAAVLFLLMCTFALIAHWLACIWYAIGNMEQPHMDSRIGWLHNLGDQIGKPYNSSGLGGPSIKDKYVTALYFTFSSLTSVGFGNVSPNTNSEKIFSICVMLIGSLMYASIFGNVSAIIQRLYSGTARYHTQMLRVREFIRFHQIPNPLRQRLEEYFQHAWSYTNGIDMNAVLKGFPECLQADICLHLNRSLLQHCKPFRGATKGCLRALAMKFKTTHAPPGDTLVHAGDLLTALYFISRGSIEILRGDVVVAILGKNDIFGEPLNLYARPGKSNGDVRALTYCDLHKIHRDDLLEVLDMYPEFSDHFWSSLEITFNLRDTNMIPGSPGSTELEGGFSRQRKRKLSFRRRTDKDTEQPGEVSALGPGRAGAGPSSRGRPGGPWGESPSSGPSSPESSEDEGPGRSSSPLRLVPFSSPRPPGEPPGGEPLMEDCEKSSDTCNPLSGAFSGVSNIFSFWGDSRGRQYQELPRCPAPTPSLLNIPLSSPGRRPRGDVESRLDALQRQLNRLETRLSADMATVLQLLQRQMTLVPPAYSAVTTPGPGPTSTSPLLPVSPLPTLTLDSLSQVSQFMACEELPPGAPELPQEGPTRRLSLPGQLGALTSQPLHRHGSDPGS

| Compound | hERG current change (%, negative = inhibition) at 1uM [%] |
| --- | --- |
| CCCc1nnc(NC(=O)CCC(=O)Nc2ccc(Cl)cc2)s1 | 14.7 |
| O=C(Nc1ccc(Oc2ccccc2)nc1)C1CCN(Cc2ccccc2)CC1 | -4.63 |
| c1ccc(Cn2c(NCc3ccccn3)nc3ccccc32)cc1 | -15.3 |
| S=C(NCCCN1CCOCC1)NC1CCCC1 | 14.5 |
| Cc1cc(C(=O)CN2C(=O)C(=O)N(CC(C)C)C2=O)c(C)n1-c1ccccc1F | 2.27 |
| O=C(Cc1c(F)cccc1Cl)NCCc1c[nH]c2ccccc12 | 15.5 |
| CCOC(=O)c1oc2nc(CC(C)C)c3c(c2c1N)CCCC3 | 13.1 |
| Cn1c(=O)n(C)c2cc(S(=O)(=O)Nc3ccc(F)cc3)ccc21 | 11.9 |
| O=C(CC1Sc2ccccc2NC1=O)OC(C(=O)NCCc1ccccc1)c1cccnc1 (centres unmarked) | 0.0089 |
| Cc1ccc(NC(=O)NC2(C(=O)NCc3ccco3)CCCCC2)cc1 | 7.84 |
| Cc1ccc(C)c(N(CC(=O)NC2CCCC2)C(=O)CNC(=O)c2cccs2)c1 | 5.87 |
| COc1ccc(/C=C2/SC(=O)N(CCC(=O)Nc3ccc(S(=O)(=O)Nc4nccs4)cc3)C2=O)cc1 | 4.87 |
| Cc1ccc(-c2cc(C(=O)NCc3ccc4c(c3)OCO4)[nH]n2)c(O)c1C | 4.07 |
| COC(Cc1n[nH]c(=S)n1-c1ccccc1)OC | 1.63 |
| COc1ccc(C(=O)Nc2ccc(C)cn2)c(OC)c1 | 3.95 |
| CC(C)CN1C2CCCC1CC(NC(=S)NCc1ccco1)C2 (centres unmarked) | 0.305 |
| Cc1cccc(/C=N/NC(=O)c2ccc(NC(=O)c3ccccc3Cl)cc2)n1 | 23.4 |
| CC(C(=O)NCCC1=CCCCC1)c1ccc([N+](=O)[O-])cc1 (centres unmarked) | 9.6 |
| COc1ccccc1CCNC(=O)CCC(=O)N1CC2C[C@@H](C1)Cn1c2cccc1=O | 7.67 |
| Cc1ccn2c(CNCC3COCCO3)c(C(=O)N3CCCCCC3)nc2c1 (centres unmarked) | 31.3 |
| O=C(Nc1ccccc1F)NC1CCCc2ccccc21 (centres unmarked) | 3.4 |
| CC(=O)N(CCN(C)C)c1nc2cc3c(cc2s1)OCCO3.Cl | 9.03 |
| CN(C(=O)/C(N=Nc1cccc(C(F)(F)F)c1)=C(\O)C(F)(F)F)c1ccccc1 | 8.42 |

| Compound | hERG current change (%, negative = inhibition) at 1uM [%] |
| --- | --- |
| CCC(C)N(C)C1CCN(C(=S)Nc2cccc(OC)c2)CC1 (centres unmarked) | 15.9 |
| CCCn1c(C(=O)c2ccc(OC)cc2)nc2ccccc21 | 9.45 |
| CCOC(=O)C(CC)n1cnc2c(nnn2-c2cccc(OC)c2)c1=O (centres unmarked) | 12 |
| COc1ccc(/C=C/C(=O)NC2CCN(Cc3ccccc3)CC2)cc1OC | 12 |
| Cc1nn(C)c(C(=O)N2CCc3ccccc32)c1Br | 4.79 |
| COc1ccc(/C=N/NC(=O)CN2CCCc3ccccc32)c(OC)c1 | 7.48 |
| COc1cc(NC2c3ccccc3C(=O)N2Cc2ccccc2Cl)cc(OC)c1 (centres unmarked) | 2.53 |
| O=C(Cc1ccccc1)NCc1n[nH]c(=S)n1-c1ccccc1 | 20.5 |
| COc1ccccc1CCC(=O)N1CCC(n2nccc2NC(=O)C2CCOC2)CC1 (centres unmarked) | 15 |
| CCc1cccc(OCC(O)Cn2c(N3CCCCC3)nc3c2c(=O)[nH]c(=O)n3C)c1 (centres unmarked) | 17.9 |
| CCn1c(C)c(C(C)=O)c(SC)nc1=S | 8.57 |
| COc1ccc(/C=N/NC(=O)c2ccco2)cc1COc1ccc(F)cc1 | 12.3 |
| CC1CCN(S(=O)(=O)c2ccc3c4c2CC(=O)N4CC(C)S3)CC1 (centres unmarked) | 15.5 |
| COc1ccc(C2C(C(N)=O)=C(C)Nc3nc(-c4ccccc4Cl)nn32)c(OC)c1 (centres unmarked) | 0.881 |
| CCOc1ccc2ccccc2c1/C=N/NC(=O)CNC(=O)C(c1ccccc1)c1ccccc1 | 12.2 |
| CCCc1cc(=O)[nH]c(SCC(=O)N(CC(C)C)C2CCS(=O)(=O)C2)n1 (centres unmarked) | 3.9 |
| CCCc1cc(=O)[nH]c2nnc(SCC(=O)N3CC(C)OC(C)C3)n12 (centres unmarked) | 16.2 |
| CCN(CC)CCCNC(=O)Cn1ncn2cccc2c1=O | 17.3 |
| CN(C)c1ccc(NC(=O)c2ccc([N+](=O)[O-])cc2Cl)cc1 | -3.73 |
| CC(C)c1nnc(NC(=O)CCC(=O)NC2CCCCCCC2)s1 | 0.952 |
| Cc1c(C#N)c2ccccc2n1CC(=O)O | 11.6 |
| Cc1ccc(C(=O)NCCC2=CCCCC2)cc1S(=O)(=O)N1CCCCC1 | 9.63 |
| CC(NC(=O)c1ccc2c(c1)C(=O)N(Cc1cccnc1)C2=O)c1ccccc1 (centres unmarked) | 17.4 |

| Compound | hERG current change (%, negative = inhibition) at 1uM [%] |
| --- | --- |
| CC(C)(C)/C(O)=C/c1nc2ccccc2oc1=O | 13.8 |
| C=CCCC(=O)N1CCCC(C(=O)c2cccc(OC)c2)C1 (centres unmarked) | 4.92 |
| COc1ccccc1Nc1ccc(C(=O)NCc2cccs2)cn1 | 3.94 |
| COc1ccccc1N1CCN(C(c2ccc(N(C)C)cc2)c2nnnn2CCc2ccccc2)CC1 (centres unmarked) | 19 |
| O=C(Nc1cscc1S(=O)(=O)c1ccc(Cl)cc1)c1ccccc1Cl | 13.6 |
| O=C(COC(=O)C1CCN(c2ccc(C(F)(F)F)cn2)CC1)NC1CCCCC1 | 9.1 |
| CCc1ccc(NC(=O)c2noc3c2CCC3)cc1 | 21 |
| Cn1nnnc1SCC(=O)N1CCCc2ccccc21 | 10.7 |
| O=C(Cn1c(=S)[nH]c2ccccc21)c1ccccc1 | 6.39 |
| C=CCn1c(-c2ccoc2)n[nH]c1=S | 12 |
| COc1ccc2cc(C(=O)O)n(CC(=O)c3ccccc3)c2c1 | 10.9 |
| COC(=O)c1cc(NC(=O)c2ccco2)ccc1N1CCOCC1 | 12.4 |
| Cc1cccc(NC(=O)Cn2nnc3sc4c(c3c2=O)CC(C)(C)OC4)c1 | 13 |
| Cc1ccccc1-c1ccc(Nc2ccc(N3CCOCC3)cc2)nn1 | -38.5 |
| COc1ccc(CC(=O)NNC(=S)NCC2CC2)cc1OC | 10.1 |
| COC(=O)c1ccc(C2C(C(=O)c3ccco3)=C(O)C(=O)N2CC2CCCO2)cc1 (centres unmarked) | 3.07 |
| COc1ccccc1NC(=O)CCC(=O)OCc1ccc(Cl)cc1 | 1.54 |
| O=C(CSC1=NS(=O)(=O)c2cc(F)ccc2N1)NCc1ccccc1 | 4.41 |
| CCN(CC)CCCn1c(=S)[nH]c2ccccc2c1=O | -4.25 |
| CCN1C(=O)/C(=C2/C=CC=CN2C)OC1=S | 5.69 |
| O=C1C[C@@H]2c3c(cccc3CN1Cc1ccc(F)cc1)C[C@@H](O)[C@H]2O | 14.8 |
| CCn1nccc1C(=O)Nc1ccc(C)c(C)c1 | 8.5 |
| NS(=O)(=O)c1ccc(CCNC(=O)C(=O)NCC2OCCN2S(=O)(=O)c2cccs2)cc1 (centres unmarked) | 10.5 |

| Compound | hERG current change (%, negative = inhibition) at 1uM [%] |
| --- | --- |
| CCN(CC)S(=O)(=O)c1ccc(OC)c(NC(=O)c2cc(C)on2)c1 | 15.1 |
| CCOc1ccc(NC(=O)c2cc3ccccc3cc2O)cc1 | 13.5 |
| O=c1cc(N2CCc3ccccc3C2)[nH]c(=O)n1-c1ccc(Cl)cc1 | -1.15 |
| Cc1cc(OCC(=O)Nc2ccc(CN3CCOCC3)cc2)ccc1Cl | -6.46 |
| Cc1ccc(NC(=O)/C=C/c2cccs2)c([N+](=O)[O-])c1 | 0.868 |
| COCCN(C(=O)c1ccc(COc2ccccc2)o1)c1c(N)n(CC(C)C)c(=O)[nH]c1=O | 0.527 |
| CCc1ccc(CNc2ccc3c(c2)ncn3CC)cc1 | 4.56 |
| CCn1c(=O)c2sccc2n(CC(=O)NC2CCCCC2)c1=O | 12.3 |
| CCOCCCNC(=S)N1CCC(C(=O)c2ccc(C)cc2)CC1 | 9.71 |
| COc1ccc(NC(=O)COC(=O)CNS(=O)(=O)/C=C/c2ccccc2)cc1OC | 14.2 |
| Cc1c(Cl)cccc1S(=O)(=O)N1CCC(C(=O)NNC(=O)C2CC2)CC1 | 7.92 |
| COc1ccc(N2CC(NC(=O)NCCC(C)C)CC2=O)cc1 (centres unmarked) | 7.06 |
| COc1ccc(Cl)cc1NC(=S)NCCN1CCOCC1 | 7.28 |
| NC(=S)Nc1cccc2cnccc12 | 5.05 |
| COc1ccc(CCNC(=O)COC(=O)c2cccs2)cc1OC | 13.9 |
| Cc1ccn2c(Nc3ccccc3C)c(-c3ccccn3)nc2c1 | 12.2 |
| CCOC(=O)c1ccccc1NC(=O)CSc1nnc(Cc2cccn2C)n1-c1ccc(F)cc1 | 1.76 |
| COc1cccc(NS(=O)(=O)c2cc3c(cc2C)NC(=O)CO3)c1 | -14 |
| FC(F)(F)c1cc(-c2ccco2)nc(NCc2ccccc2)n1 | 9.99 |
| CSc1ccc(-c2nc(CN(C)C3CCOC3)c(C)o2)cc1 (centres unmarked) | -1.74 |
| CCCCNC(=O)/C=C1\Sc2ccccc2NC1=O | 14.9 |
| CCOP(=O)(c1ccc(N(C)C)cc1)C(O)c1ccc(OC)cc1 (centres unmarked) | 13 |
| c1csc(Cn2c(-c3cccs3)nc3ccccc32)c1 | -7.81 |

From PMC4336329 (PLoS ONE, 2015)
